Experimental data reported in the supplement of paper PMC3334620.
Whole data set: some 33,000 sequences, median “E-score (-0.5 to 0.5)” near -0.01, cut for the highest 2% near 0.26. The list shows a part of the results.

Target: Ste12 (UniProt P13574)
Assay: PBM E-score (8-mer binding enrichment) (E-score (-0.5 to 0.5)); higher = stronger / more preferred TF binding; most listed sequences are background and not binding sites
Settings: protein concentration: 200 nM; construct: GST-DNA-binding domain
Outline: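 Yeast transcription factors, full-length or as DNA-binding domains, were expressed with a GST tag using PURExpress in vitro transcription/translation. At about 100-200 nM they were applied to universal all-10-mer Agilent arrays, double-stranded by primer extension on fresh or once-stripped slides. Fluorescent anti-GST detected bound protein, and masliner normalised the scans. E-scores for ungapped eight-base words, pooled with reverse complements, came from the Universal PBM Analysis Suite.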

Sequence | PBM E-score
TAAATCTA | 0.0908
CCATTCTC | 0.0607
ACTTGCGC | 0.00294
CGGTGTAG | 0.0186
ATAGTACA | -0.00118
CAAAATCA | 0.228
CGAGGTCA | -0.00185
GCTCCCGA | -0.0536
CGTATGGC | -0.163
GTCTTGGA | 0.0115
CCGCGCCC | 0.182
AAGAGTAC | -0.153
AATAGAGC | -0.113
GGCCCGGA | 0.0827
TCTCAAGA | 0.144
ACATGGGC | -0.00745
TCCGCTAA | -0.0717
ACCCTTCT | -0.111
CGCCGTCA | 0.0459
CGCTGTAC | 0.113
AACGTAGC | -0.24
ATGACTTA | -0.023
GCTGCTCC | -0.27
CACGGAAG | -0.171
GAGCGCGA | 0.215

Sequence | PBM E-score
ATACTCGA | 0.0683
CGCGCGCG | 0.262
CTGTAGAC | -0.143
TTACACAA | 0.248
TCGCTGCA | -0.075
CTGGATTA | 0.149
CATCATCG | 0.0109
CCACCTAG | -0.0618
ACCAACTA | -0.0231
TCCGGAGA | 0.02
AAGACCGC | -0.0921
GAGTGATC | -0.123
ATTTACGA | 0.148
ATCTGACC | -0.0146
AGGTCCTC | -0.066
AGCGTGAA | -0.0278
TAGGCAGA | 0.128
GCTGGGCA | -0.0541
CGCAACAA | 0.0765
GCTTCTAA | -0.149
ATTTCCAG | 0.119
CCCATATC | 0.00256
CCCTTAAA | -0.0805
ATCGCGGC | -0.034
CCATGCAG | -0.198

Sequence | PBM E-score
ACATTTCT | 0.133
AGGGCAAC | -0.107
CACTCAAG | -0.182
AACCGGCA | -0.0027
CGAACGCA | 0.0798
GCGCCTCA | -0.0118
CAGGTTGA | 0.0426
CCTCCATC | -0.0452
CACATAGG | -0.0914
AAAATAAG | 0.183
ATTGCTTC | -0.0681
AAAACAAC | 0.154
CTGTAGCA | -0.0934
AATCCATC | -0.00588
GCTTAGAA | 0.0751
TCGTTACA | 0.151
GGTAGGGA | -0.121
AAGGCCGG | 0.0024
GAGGCGAC | -0.201
AGCAACTA | -0.058
CCTTAGTC | -0.212
CAAAGTTA | 0.0942
CTGGTTAC | -0.176
ATCTTAAT | 0.0667
CAAGCGAA | -0.00054

Sequence | PBM E-score
TCGGCCCA | -0.0576
ATTTGGGG | 0.00758
GGCTCGGA | -0.24
CCTCTGTC | -0.167
CACGTAAA | -0.148
AAAAGGAT | -0.0418
GACGTCAC | -0.136
ACCATAAC | 0.253
ACTTACAT | -0.0277
AGAAACAC | 0.121
CCCGCTAC | 0.125
CAACAAGA | 0.0401
AGGACCAA | -0.189
AACTCCAA | 0.123
CCACCTAC | -0.0276
CATAAAAG | 0.0283
AGATAGGA | -0.0551
ACATCGAA | 0.0463
AGGAGTAG | -0.0871
CGCCCCAA | 0.296
GCTGTCCC | -0.126
CGTTTCTC | 0.0338
AGCGTGCC | -0.058
ACTGGCTA | -0.235
CTCAGTAC | -0.136

Sequence | PBM E-score
GAGTTCCA | -0.111
ACCAACAC | -0.0972
CCGTCCAA | -0.0289
GCAGGCAC | -0.188
ACGACCGT | -0.266
AGGATCGC | -0.0641
CGAGTACA | -0.127
ACAGGGGT | -0.0559
AGCAGCAA | 0.0764
GGGCGGGA | 0.235
AGCGTTTG | 0.0524
CGGAGTGC | 0.0242
ACTCTTTG | 0.00309
CCAACCAC | 0.0116
AACTCACA | 0.0265
TCGGGCCA | 0.0299
CTAAGAAA | 0.163
ACTACCCT | 0.017
ACCCTTAA | 0.0271
AGCTGCAC | -0.0833
GACTCCAC | -0.143
CCCCGTTC | 0.0499
AACCGTAC | -0.0952
CACCGAAC | -0.0317
ACGTTAAT | 0.0653

Sequence | PBM E-score
CACGCGTG | 0.221
TACCCAGA | 0.102
CCGATCAG | -0.142
CGTAGTTA | 0.0511
ATCGGGAA | 0.123
AGCGCACA | -0.0975
GTAATCAC | -0.0282
CCGCTCCA | -0.183
ACCCACCG | 0.0713
GATAAGCC | -0.05
CACAATTA | 0.0236
ACACGGAC | -0.149
GACCGGTC | 0.0572
GTATGTAA | 0.189
GACCTTCC | -0.0505
AGGCTCCA | -0.0213
CATATTAG | 0.137
CCCGTAAA | 0.0878
GGCTTGTA | 0.0721
ACATGGGA | 0.131
ATTACTAG | -0.0476
GAAGGGGA | -0.00677
ATTCCTGG | 0.124
GCGGCCAA | 0.0675
ATGCCGTA | -0.0947

Sequence | PBM E-score
CGCATTGC | 0.0291
AAGTACCG | -0.0593
CACGCCTG | -0.0939
CTGAACGA | -0.167
AGACAGCC | -0.0343
CCCTTTAA | -0.118
TATACGGA | -0.209
AAGTTCTC | -0.0252
AGTAAGCG | -0.102
TATGCTAA | 0.0339
CCACCGTC | -0.045
CGGATCAC | 0.0938
GCCTTACA | -0.0389
CCATCCGC | -0.0933
AAGTTTGT | 0.2
AAGGATTG | -0.1
ACATCGTG | 0.0408
AGCACCAA | -0.0159
AACCGATC | -0.047
GTCACATA | 0.183
CATCTCAC | -0.00516
CTCTCTCA | -0.02
CTCCGGCC | -0.232
CACACACC | -0.0676
GAGCCGAA | 0.0586

Sequence | PBM E-score
AAGGGAAT | -0.111
ACTGACAC | -0.0722
ATTCCACC | 0.113
ATGCAGGC | -0.0785
CGATCCAC | -0.165
AAAGAGGC | -0.229
TGGCGTAA | -0.158
CCTCAAGG | -0.26
CAAGGCAG | -0.0826
AGGCGTGA | -0.0487
ACGAGGAC | -0.156
CGCACTAA | -0.00824
CGTATCGC | 0.0593
TACAGCCA | -0.121
TTCCACAA | 0.238
CGTAATAA | 0.186
GCCCCCAC | -0.181
CTCCTCTC | -0.161
ATCGAAGA | 0.0371
ATTTCGCC | 0.121
CGTTTCTA | 0.166
ATCATGAG | 0.0432
GATACCTA | 0.169
CGGTTGCA | -0.159
ACGAATCG | -0.0508

Sequence | PBM E-score
CGGAGCCG | -0.0642
GATACAGA | 0.118
AGCGAACG | -0.157
AGCTACAC | -0.0604
CGGCTGAC | 0.0126
CTTCTCGC | 0.015
TCCAGTAA | -0.172
TACTAGCA | -0.014
AGTGTTTG | 0.245
CTTAGGAC | -0.03
CCCACGAA | 0.168
CGCCGTGC | -0.0554
AATCCTGG | 0.0608
GATAGGTA | -0.125
GCTCGCGA | 0.195
ACATTTAG | -0.0629
TCGATCGA | -0.0177
ACGATGTC | -0.136
AGCGTTAT | 0.0698
CCAAGATA | 0.0411
AACTGGCC | -0.0398
AAACCCTT | 0.0361
GATATCTA | 0.115
CATCGCCA | 0.0243
GTTCTCTA | -0.0407

Sequence | PBM E-score
CGCTTAGA | -0.0481
GAAGGTGC | -0.0511
CATGCCAG | 0.0469
CTGTTGGC | -0.0696
AGTTCTAT | 0.0382
ATGCGGAG | -0.302
ACAACATG | 0.0765
ACGAGTGA | 1e-05
TCGTTAGA | -0.0655
GTAACTTA | 0.073
GGTTTCAC | 0.386
GGCTGGGA | -0.0243
GCCTCTCA | -0.248
CATCCCGA | -0.00385
GTATAAAA | 0.241
ACACCTAT | 0.0295
TGTTAGAA | 0.158
AGACGTAC | -0.0648
AACCTCTC | -0.0548
AACGGCCG | 0.146
CCCAGGCA | -0.104
CGATACTC | -0.0354
CCGTGAGG | -0.125
CGTACCAC | -0.0892
GCTACCCC | -0.221

Sequence | PBM E-score
AACACCTA | 0.0605
CACGCAAC | 0.0403
ACGGTCAC | -0.114
CCCATGCC | -0.0852
CAGCAGCC | -0.0193
GACACACA | 0.137
ATCCGCCC | 0.0265
ACGCCACG | -0.182
CCGCCAGA | 0.0807
CAGAAGGG | -0.17
CGCGCGAC | 0.111
AAAGGGGA | -0.0964
TCCGAACA | 0.0115
ACACTGTG | 0.0657
ACACGCAC | -0.255
TCTTAGCA | -0.0313
AGTAAGTG | -0.0738
AGTGACCA | -0.0297
GGCGCGAA | 0.0543
GTGAACAC | -0.108
ATATATTA | 0.185
ATGGACGG | -0.00997
AGGCAAGG | -0.273
CGGCAGGC | -0.151
ACATATAC | 0.0437

Sequence | PBM E-score
ACTGGGAT | 0.00537
CGATGGAG | -0.0853
CGTACGAC | -0.194
CAGATCAC | -0.17
GGAGTCGA | 0.0751
CGTAATTA | -0.0592
GTGATTCA | 0.0424
GGTAGTTA | -0.0199
ACGCTGGG | -0.238
CGGCGGGC | 0.021
CAAATACC | 0.185
CCGCTGCC | -0.163
ATGCGAGA | -0.0269
ACGACGCC | -0.118
AAACCTTA | 0.247
AAACTATA | 0.141
ACTACGTG | -0.283
CATCAAAG | 0.0187
AGCTAAAG | -0.0673
GGCTGCGA | 0.196
CAGTCCGC | -0.178
CACCGTGG | -0.0761
AGCAAATG | -0.0505
GGCATTAC | 0.0694
TAGAGACA | -0.064

Sequence | PBM E-score
ATCCTGTA | -0.0955
GAGATCTC | -0.14
GGCTTTAA | 0.0191
CTGCGTCC | -0.0984
CAATCGGG | -0.0207
ATACTAAA | 0.214
AGCCAAAC | 0.207
CGAATCTC | -0.00505
ATCGTGAG | -0.243
CGCGTCAA | 0.0957
CTACAGAG | -0.0766
GGAATATA | 0.215
GCACGCAA | -0.0539
CGCCTAGC | -0.0616
CGCCTACA | 0.0882
AGTAACAA | 0.0502
GGAACGGA | 0.031
AAAAGTGA | 0.267
GAGTCATA | 0.0777
ATATTTAC | 0.219
ATGGTGGC | 0.0316
CACGAGGA | -0.183
CCGAGCTA | 0.0483
CATGCAAG | 0.0792
AGATGAGC | -0.103

Sequence | PBM E-score
TATGTAGA | 0.0155
CGCCAGGC | -0.0821
CTTTTCCA | 0.0778
AGTACTCG | -0.0202
ACTCCGCT | -0.115
CGTGCCTA | -0.201
CTCAGGCC | -0.097
ATCCCCCC | -0.159
ACCGCAAC | 0.1
CGTATATC | -0.068
TCAATCAA | 0.21
AGGTTAGA | -0.0279
AGTTCACA | 0.0194
ACTATCAT | 0.164
ATGGAGTG | -0.122
AAGTGAAG | 0.0915
AAACGGCT | -0.115
GCCATTAA | -0.0508
GCATGCAC | -0.201
